Test results taken from PubChem BioAssay AID485344 (National Center for Advancing Translational Sciences (NCATS), 2010).
About 6,900 (2%) of roughly 340,000 compounds were called active. Cut-off read from the data, not from the text of the source: active = inhibition above about 30%; inactive = below that, where a call was filed. This is a selection; strong and weak results do not stand in their true shares. The source gives no active or inactive call for entries shown without one.
Note: 0% is about no effect.

These molecules were tested against D(2) dopamine receptor (Homo sapiens) (UniProt P14416) (assay: HTS Assay for Allosteric Antagonists of the Human D2 Dopamine Receptor: Primary Screen for Antagonists). Details: HEK293 TREx D2 cells, calcium flux, dopamine EC80; at 10 µM; stronger effect = higher value.
Chain of UniProt P14416 (P14416 whole entry, looked up): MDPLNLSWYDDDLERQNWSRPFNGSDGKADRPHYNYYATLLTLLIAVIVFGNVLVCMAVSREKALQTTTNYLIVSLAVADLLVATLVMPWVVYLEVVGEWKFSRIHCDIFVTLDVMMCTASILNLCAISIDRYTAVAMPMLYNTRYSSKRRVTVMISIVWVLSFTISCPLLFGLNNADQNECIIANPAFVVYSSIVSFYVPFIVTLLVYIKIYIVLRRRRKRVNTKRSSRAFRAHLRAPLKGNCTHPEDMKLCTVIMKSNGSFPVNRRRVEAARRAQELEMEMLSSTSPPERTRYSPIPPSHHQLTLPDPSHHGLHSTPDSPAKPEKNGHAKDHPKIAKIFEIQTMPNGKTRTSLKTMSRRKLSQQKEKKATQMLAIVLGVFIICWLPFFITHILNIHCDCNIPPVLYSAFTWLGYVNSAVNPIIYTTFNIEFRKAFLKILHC
Procedure, shortened: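 Cells plated overnight at 30 C with tetracycline; no-wash calcium dye, 30–90 min RT; 10 s baseline; compound pinned; 180 s read; EC80 dopamine added; another 180 s read.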
`CCCCNC(=O)c1ccc2c(c1)ncn2-c1cc(OC)ccc1OC` gave an inhibition of -11.1%. `CC(=O)c1c(C)oc2c1cc(NS(=O)(=O)c1ccc(Br)cc1)c1ccccc12` was tested, and the inhibition was -6.29%. For `O=C(Nc1ccccc1F)c1ccc2c(Cl)c3c(nc2c1)CCC3`, the inhibition was -0.694%. `CCCNc1ccc(-c2nc(-c3ccccn3)no2)cc1[N+](=O)[O-]` showed an inhibition of 5.07%. With `CN(CC(=O)NC(=O)NCc1ccccc1)CC(=O)Nc1ccc(Cl)c(C(F)(F)F)c1` the inhibition was active: 35.2%. For `CCOc1ccccc1CNCc1cccn1-c1nnc(N2CCN(c3ccccc3)CC2)s1`, the inhibition was 4.21%. For `COC(=O)c1ccc(NC(=O)CCn2cnnn2)cc1`, the inhibition was 19.4%. For `CCN(CCCNC(=O)c1nn(-c2ccc(OC)cc2)c(=O)c2c1c1ccccc1n2C)c1ccccc1`, the inhibition was -16%. With `COc1ccc(S(=O)(=O)Nc2ccc(-c3cn4c(C)csc4n3)cc2)cc1` the inhibition was -22.9%. With `COc1ccc(-n2ncc3c(NC4CCCC4)ncnc32)cc1` the inhibition was -9.13%. Work on `COc1ccccc1S(=O)(=O)Cc1ccc(C(=O)NCc2ccc(Cl)cc2)o1` yielded an inhibition of -6.13%. In the case of `Cc1ccc(N2CCN(S(=O)(=O)c3cccc4ccccc34)CC2)cc1Cl`, the inhibition is reported as 4.56%. Work on `O=C(Nc1cccc(C(F)(F)F)c1)c1cc(CN2CCOCC2)on1` yielded an inhibition of -11.5%. For `COc1ccccc1/C=C/CN1CCC(CO)(Cc2ccccc2)CC1`, the inhibition was active: 53.2%. `O=C(Cn1nc(C(F)(F)F)c2c1CCCC2)Nc1ccc(Br)cc1` was tested, and the inhibition was -13%. `Cc1ccc(-n2nnnc2CNC(=O)c2cc(C(F)(F)F)cc(C(F)(F)F)c2)cc1C` was tested, and the inhibition was 15.8%. Work on `COc1cccc(CNC(=O)COc2cc(=O)n(C)c3ccccc23)c1` yielded an inhibition of 3.06%. Molecule `COc1cccc(-c2noc(C3CC(=O)N(c4ccc(F)cc4)C3)n2)c1OC` (stereo not given) has an inhibition of -3.55%. `COc1ccccc1CNC(=O)c1cc2sccc2n1Cc1ccc(Cl)cc1` was tested, and the inhibition was -7.9%. Molecule `COc1ccc(NC(=O)CSc2ccc3nc(-c4ccccc4)cn3n2)c(OC)c1` has an inhibition of -4.96%. With `CCc1ccc(NC(=O)CCn2c(=O)c3cccn3c3ccccc32)cc1` the inhibition was -16.4%. In the case of `Cc1ccccc1NC(=O)CSc1nc2ccc(NC(=O)c3cccs3)cc2s1`, the inhibition is reported as -3.72%. Molecule `CSc1cccc(NC(=O)c2cccc(N3CCCS3(=O)=O)c2)c1` has an inhibition of -0.0028%. For `Cc1ccc(NC(=O)c2ccc3[nH]c(C)cc(=O)c3c2)cc1`, the inhibition was -16.2%. `CCN1CCN(CCNC(=O)c2ccc3c(c2)N(Cc2cccc(Cl)c2)C(=O)c2ccccc2S3=O)CC1` (stereo not given) was tested, and the inhibition was active: 40.3%. `CCOc1ccc(OCC)c(Nc2ccc3cc(S(=O)(=O)N4CCCC4)ccc3n2)c1` showed an inhibition of -4.76%. In the case of `CCC1=Nc2cc(C(=O)NC3CCC(C)CC3)ccc2Sc2ccc(C)cc21` (stereo not given), the inhibition is reported as 2.31%. In the case of `CCC1CN(C(=O)N2CCC(C(=O)NCc3cccc(OC)c3OC)CC2)c2cc(C)ccc2O1` (stereo not given), the inhibition is reported as -4.73%. Molecule `CC(C)c1ccc(NC(=O)c2ccc(F)c(S(=O)(=O)N3CCc4ccccc43)c2)cc1` has an inhibition of -8.67%. `O=C(C1CCCN(S(=O)(=O)c2cccc3nsnc23)C1)N1CCN(c2ccccc2F)CC1` (stereo not given) was tested, and the inhibition was 14.8%. Molecule `CCC(C)NC(=O)CSc1nc2n[nH]c(C)c2c(=N)n1-c1cc(Cl)ccc1C` (stereo not given) has an inhibition of -13.9%. With `COc1ccc(S(=O)(=O)c2cn(C)c3ccc(C)cc3c2=O)cc1` the inhibition was -1.69%. `Cc1cc(C)c2oc(C(=O)Nc3ccc(S(=O)(=O)N4CCCCCC4)cc3)cc(=O)c2c1` showed an inhibition of 0.574%. `Cc1cccc(NC(=O)c2c(C)cc(C)nc2SCC(=O)c2ccccc2)c1` gave an inhibition of 4.08%. For `CNc1nc(C)nc(-n2nc(C)cc2C)n1`, the inhibition was active: 35.3%. In the case of `O=C(Nc1ccc(S(=O)(=O)N2CCCCC2c2cccnc2)cc1)c1ccc(Br)cc1` (stereo not given), the inhibition is reported as 1.71%. `Cc1cccc(NC(=O)COC(=O)CCCC2=NS(=O)(=O)c3ccccc3N2)c1` gave an inhibition of -14.6%. In the case of `COc1ccc(N(C(=O)CNC(=O)c2ccco2)C(C(=O)NC2CCCC2)c2ccncc2)cc1` (stereo not given), the inhibition is reported as active: 51.1%. For `CCOc1ccc(S(=O)(=O)Nc2cccc(-c3ccc(OCC)nn3)c2)cc1`, the inhibition was -15.7%. With `Cc1ccc(SCC(=O)Nc2ccc(C(=O)Nc3ccc(O)cc3)cc2)cc1` the inhibition was active: 71.8%. `COc1ccccc1CCNC(=O)C(=O)NCC(c1cccs1)S(=O)(=O)c1cccs1` (stereo not given) showed an inhibition of -14.5%. `Cc1ccc(/C=C/c2onc(C)c2S(=O)(=O)N2CCC(C(=O)Nc3cc(C)ccc3C)CC2)cc1` showed an inhibition of 14.4%. In the case of `CCC(c1nnnn1C1CCCC1)N1CCN(c2ccccc2)CC1` (stereo not given), the inhibition is reported as active: 52.1%. In the case of `COc1cc(Cl)c(NC(=O)CCS(=O)(=O)c2ccc3c(c2)NC(=O)CO3)c(OC)c1`, the inhibition is reported as -5.58%. Molecule `CCCCCOc1ccc(Cn2c(=O)oc3ccccc32)cc1` has an inhibition of -1.74%. `Cc1ccc(S(=O)(=O)Nc2cccc(C(=O)NCC(c3ccccc3)N(C)C)c2)cc1F` (stereo not given) was tested, and the inhibition was active: 79.2%. `COc1ccc(CCNC(=O)c2ccc3c(c2)CCN3S(=O)(=O)c2ccc(C)cc2)cc1` was tested, and the inhibition was 9.24%. Work on `CC(C)(C)OC(=O)N1CCC(c2c(C(=O)NC3CCN(Cc4ccccc4)CC3)cnn2-c2ccc(F)cc2F)CC1` yielded an inhibition of -5.93%. `CCOc1ccc(NC(=O)C(=O)c2cc(C)n(-c3cc(C)cc(C)c3)c2C)cc1` showed an inhibition of 1.3%. In the case of `Cc1ccc(NC(=O)C2CCCN(S(=O)(=O)c3ccc4c(c3)oc(=O)n4C)C2)cc1Cl` (stereo not given), the inhibition is reported as -6.77%. `COc1ccc(-c2cc(C(=O)NCCc3ccccc3)c3c(-c4ccccc4)[nH]nc3n2)cc1OC` showed an inhibition of -9.29%. In the case of `O=C(Nc1ccccc1)C(=O)Nc1ccc2c(c1)N(C(=O)C1CC1)CCC2`, the inhibition is reported as active: 35.2%. With `COc1ccccc1N1CCN(CC(O)COc2ccc(S(=O)(=O)N3CCOCC3)cc2)CC1` (stereo not given) the inhibition was active: 92.3%. With `COc1cccc(NC(=O)CSC2=Nc3ccccc3C3=NC(CCC(=O)NCCc4ccccc4)C(=O)N23)c1` (stereo not given) the inhibition was 2.41%. With `Cc1cccc(NC(=O)c2ccc3nc(C(C)C)oc3c2)c1C` the inhibition was -10.2%. With `O=c1c2ccccc2n(Cc2ccccc2Cl)c(=O)n1CCc1ccccc1` the inhibition was 14.8%. `CCOC(=O)c1ccc(Nc2nc3ccc(C(=O)c4ccccc4)cc3n3c(C)nnc23)cc1` showed an inhibition of 3.26%. `CCCN(CCC)C(=O)Cn1c(=O)n(-c2ccc(CC)cc2)c(=O)c2ccc(C(=O)NCCc3ccccc3)cc21` was tested, and the inhibition was 10.7%. Work on `Cc1ccc(NC(=O)CN2CCN(S(=O)(=O)c3ccc(C(C)C)cc3)CC2)cc1F` yielded an inhibition of 10.4%. Work on `COc1ccc(Nc2nc(N)nc(N)c2S(=O)(=O)c2ccccc2)cc1` yielded an inhibition of 0.981%. `Cc1cn(C)c(CC(=O)N2CCN(c3cccc(Cl)c3)CC2)c1C(=O)O` showed an inhibition of 21.2%. Work on `Cc1ccc(-n2nc(CO)c(C(=O)NC(C)CCCc3ccccc3)n2)cc1` (stereo not given) yielded an inhibition of 14.5%. `COc1ccc(Br)cc1/C=N/NC(=O)CNC(=O)/C=C/c1ccccc1` was tested, and the inhibition was active: 76.3%. For `CCC(=O)N1CCc2cc(S(=O)(=O)CCC(=O)N3CCN(c4ccc(Cl)cc4)CC3)ccc21`, the inhibition was 6.59%. `COc1ccc(NC(=O)c2c(NCc3sccc3C)sc3c2CCCC3)c(OC)c1` gave an inhibition of -2.67%. Work on `CCc1nn2c(=O)cc(COC(=O)CNC(=O)COc3ccc(C)cc3)nc2s1` yielded an inhibition of 6.14%. `CCCOc1ccc(CN(C(=O)Cc2coc3ccc(CC)cc23)C2CCS(=O)(=O)C2)cc1` (stereo not given) was tested, and the inhibition was -5.35%. With `CCCn1c(=O)sc2cc(NC(=O)c3ccc(OC)c(Br)c3)ccc21` the inhibition was 17%. Work on `CC(C)CC(NS(=O)(=O)c1ccc2c(c1)oc(=O)n2C)C(=O)NCc1ccccc1Cl` (stereo not given) yielded an inhibition of -2.66%. With `CC(C)c1ccc(NC(=O)c2ccc3c(c2)CCN3S(=O)(=O)c2ccccc2)cc1` the inhibition was 3.23%. Molecule `O=C(Nc1nnc(S(=O)(=O)N2CCCc3ccccc32)s1)c1ccccc1Cl` has an inhibition of 22.9%. Molecule `O=C(Nc1ccc(O)c(-c2nc3ccccc3o2)c1)c1sc2ccccc2c1Cl` has an inhibition of 1.55%. `COc1ccccc1N1CCN(C(=O)c2cn(CC(C)C)c(=O)c3c2c2ccccc2n3C)CC1` gave an inhibition of 24.1%. `O=C(CSCc1cnn(-c2ccccc2)c1-n1cccc1)NCc1ccc(Cl)cc1` showed an inhibition of 18.4%. Molecule `CCCOc1ccc(NC(=O)CC2C(=O)N(c3cccc(OC)c3)C(=O)N2Cc2cccs2)cc1` (stereo not given) has an inhibition of 0.279%. `Cc1nc2ccn(Cc3ccccc3)c(=O)c2cc1C(=O)N1CCN(c2ccccc2F)CC1` gave an inhibition of 0.143%. In the case of `Cc1cc(F)ccc1S(=O)(=O)Nc1ccc2oc3c(c2c1)CC(C)CC3` (stereo not given), the inhibition is reported as 0.288%. `Cc1cccc(C2C=C(c3ccc(C)c(C)c3)Nc3nnnn32)c1` (stereo not given) was tested, and the inhibition was 13%. Molecule `COc1cc(OC)cc(-c2cc3nc(C)c(CCC(=O)NCc4ccccc4)c(C)n3n2)c1` has an inhibition of -10.8%. `CCOc1ccccc1C(=O)NC1(C(F)(F)F)NC(=O)N(CCc2ccc(OC)c(OC)c2)C1=O` (stereo not given) gave an inhibition of 7.74%. `O=C(Nc1nc2c(s1)CCCCCC2)Nc1ccc(F)cc1F` gave an inhibition of 25.9%. Work on `CN1C(=O)Cc2cc(S(=O)(=O)NCCc3ccc(Cl)cc3)ccc21` yielded an inhibition of -12.5%. `COc1ccc(-c2noc(CSc3nnc(C)n3-c3ccc(C)cc3)n2)cc1OC` gave an inhibition of 0.153%. `CCOc1ccccc1CNC(=O)C1CCN(S(=O)(=O)c2ccc3[nH]c(=O)ccc3c2)CC1` gave an inhibition of 8.44%. For `CC(C)c1ccc(OCC(O)CN2CCN(c3ccccc3)CC2)cc1` (stereo not given), the inhibition was active: 78.3%. Work on `CCOc1ccccc1NC(=O)Cn1ncc2c(=O)oc3ccc(C)cc3c21` yielded an inhibition of 10.9%. For `CCOC(=O)c1c(C)oc2ncnc(Nc3ccc(OC)cc3OC)c12`, the inhibition was -7.28%. `COc1ccccc1NC(=O)CSC1=Nc2ccccc2C2=NC(CCC(=O)NCCc3ccccc3)C(=O)N12` (stereo not given) was tested, and the inhibition was 7.86%. `COC(=O)c1ccc(Cn2cnc3nc4c(cc3c2=O)CCCC4)cc1` showed an inhibition of 19.5%. `CC(=O)N1CCc2c(sc3c2c(=O)n(Cc2ccccc2)c(=O)n3Cc2ccc(C)cc2)C1` showed an inhibition of 10.6%. With `CC(=O)c1ccc(N2CCN(C(=O)C3CCN(S(=O)(=O)c4c(C)noc4/C=C/c4ccc(C)cc4)CC3)CC2)cc1` the inhibition was -0.0044%. With `O=C(NCCN1CCN(c2ccccc2Cl)CC1)Nc1ccccc1` the inhibition was active: 52.5%. In the case of `CC1CC(C)CN(CCOCCSc2ccccc2)C1` (stereo not given), the inhibition is reported as active: 64.8%. Work on `Cc1ccc(C(=O)c2c(N)c(-c3nc(-c4ccc5c(c4)OCO5)cs3)c3ccccn23)cc1C` yielded an inhibition of 1.53%. With `Cc1cccc(N2CCN(C(=O)Cc3c(C(=O)O)c(C)cn3C)CC2)c1C` the inhibition was 25.3%.
